Results from the supplement of paper PMC10338343.
± gives the standard deviation. In all, about 6,600 sequences were measured (“pre-steady-state target cleavage rate”: median about 0.07, highest 2% from about 0.72 on). The entries are a selection whose mix differs from that of the whole data set.

Tested on: MIWI (PIWIL1) piRISC loaded with Kctd7 piRNA (30 nt)
Assay: pre-steady-state target cleavage rate (min^-1); MIWI and MILI are mouse PIWI proteins and EfPiwi is from a freshwater sponge; tags in brackets are library labels; higher = faster piRNA-guided slicing of the target
Conditions: guide: Kctd7 piRNA 5'p-UGUUAAUCUCUCAGAGAAGGUGACAGUGAU; auxiliary factor: 500 nM mouse GTSF1
Procedure: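 Cleave-'n-Seq: a library of target RNAs (target site embedded in constant flanks, ACAGCATTCCGCGTTAGTGATATCCG... 5' flank; DNA-blocked outside the site) at 0.1 nM was incubated with 1 nM active mouse MILI or MIWI piRISC (synthetic 5'-monophosphorylated piRNA guide) with or without 500 nM mouse GTSF1 at 33 °C for 1 min to 16 h. Uncleaved targets were sequenced and normalised to non-target controls, and the pooled three trials were fitted to a burst-and-steady-state model to give the pre-steady-state cleavage rate (min^-1; k3 is constrained to at most 1e-4). Sequence is the target site only; target names encode pairing extent (gX:gY) and contiguous / 1-mismatch / 2-mismatch / bulge geometry. Fits with R² ≤ 0 are excluded.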

Sequence | pre-steady-state target cleavage rate
UACUGUGUCACCUUCUCUGAGAGAUUAAGA | 0.223 ± 0.027
UAGUGACACACCUUCUCUGAGACUAUAUGA | < 0.0001
UAGUGACACUCCUUCUCUGACAGAUUAACA | 0.0907 ± 0.011
UACACUCUCACCUUCUCUGACAGAUUAACA | 0.333 ± 0.028
UAGUGACUCACCUACUCUGAGAGAUAAACA | 0.0896 ± 0.015
UAGUGACAGACCUUCUCUGAGAGAUUAACCA | 0.186 ± 0.021
UAGUCUGUCACCUUGUCUGAGAGAAUAACA | 0.0521 ± 0.019
UAGUGACAGACCUUGUCUGAGAGAUUAACA | 0.0271 ± 0.0055
UAGUGUGUCUCCUUCUCUGAGAGAUUAUGA | 0.0256 ± 0.0085
UAGUGACAGUGCUUCUCUGCGAGAUUAACA | 0.00577 ± 0.0016
UUCACUGUCACCUAUCUCUGAGAGAUUAACA | 0.595 ± 0.028
UUCACUGUCACCAUCUCUGAGAGAUUAUCA | 0.313 ± 0.042
UAGUGACUCACCUUCUCUGUGAGAAUAACA | 0.0194 ± 0.0051
UAGUCUGUGACCUUCUCUGUGAGAUUAACA | 0.189 ± 0.015
AUCACUGUCACCUUCUCUGAGUCAUUAACA | 0.0117 ± 0.0032
UAGUGUGUCACCUUCUCUGAGAGUUUAAGA | 0.161 ± 0.04
UAGUGAGUCACGUUCUGUGAGAGAUUAACA | 0.427 ± 0.025
UAGUGACUCACCUUCUCUGAGAGAAUAUCA | 0.0374 ± 0.0092
UAGACUGUCACCUUCGCUGAGAGAUUAACA | 0.425 ± 0.047
UUCACUGUCACCUUCUCAGAGAGAUUUUGA | 0.223 ± 0.06
AUCACAGUCACCUUCUCUGAGAGAUUAUCA | 0.29 ± 0.035
UAGUGACAGUGGAAGACUGCGAGAUUAACA | < 0.0001
UUCAUGUCACCUUCUCUGAGAGAUUAACA | 0.311 ± 0.032
UAGUGACACUACCUUCUCUGAGAGAUUAACA | 0.324 ± 0.025

Sequence | pre-steady-state target cleavage rate
UAGUGACUCACCUACUCUGAGUGAUUAACA | 0.00715 ± 0.0029
UAGUGAGUCACCUUCUCUGAGAGUUUAACA | 0.392 ± 0.067
UAGUGACACACCUACUCUGAGAGAUUAACA | 0.251 ± 0.026
UUGACUGUCACCUUCUCUGAGAGAUUAAGA | 0.257 ± 0.034
UAGUGUGUCACCUUCUCUGAGAGUUUAUGA | 0.103 ± 0.033
UAGACUGACACCUUCUCUGAGAGAUUUUGA | 0.0218 ± 0.0063
UAGUGACACACCUUCUGUGAGUGAUUAACA | 0.0191 ± 0.0043
UUCACUGUCACCUUCUCUCUGAGAUUAAGA | 0.013 ± 0.0054
UAGUGACAGUGCUUCUCUGAGAGCAUUAACA | 0.00327 ± 0.003
UAGACUGUCACCUUCUCUGAGAGAUUGAACA | 0.446 ± 0.055
UACACUGUCUGCUUCUCUGAGAGAUUUUGA | 0.00732 ± 0.0032
UAGUGACUCUCCUUCUCUGAGAGAUUAAGA | 0.0258 ± 0.0053
AUCACUGUCACCUUCUCUGAGAGAUUUUGA | 0.0948 ± 0.023
AACACUGUCACCUUCUGUGAGAGAUUAACA | 0.623 ± 0.029
UUGUCUGUCACCUUCUCUGAGAGAUUAUGA | 0.0511 ± 0.015
UAGAGUGUCACCUUCUCUGAGAGAUUUACA | 0.411 ± 0.049
UAGUGUCUCACCUUCUCUGAGAGAUUAAGA | 0.091 ± 0.02
UACACUGUCACGAUCUCUGAGAGAUUAUGA | 0.0201 ± 0.008
AUCACUGUCACCAUCUCAGAGAGAUUAACA | 0.15 ± 0.02
UAGUGACUCACCUUAUCUGAGAGAUUAACA | 0.308 ± 0.034
UAGUGACAGUGCUUCUCUGAAAGAUUAACA | 0.00956 ± 0.0019
UACUCUGUCACCUUCUCUGAGAGAUUAUGA | 0.122 ± 0.025
UAGUCUGUCACCUUGUCUGAGAGAUUAACA | 0.265 ± 0.025
UAGUGUGUCACCUUGUCUGAGAGAUAAACA | 0.063 ± 0.012

Sequence | pre-steady-state target cleavage rate
UAGAGUGUCACCUUCUCUCAGAGAUUAACA | 0.137 ± 0.014
UAGUCUGUCACCUUCUCUGAGAGUUAAACA | 0.4 ± 0.074
UAGUGAGUCACCUCUCUCUGAGAGAUUAACA | 0.377 ± 0.034
UAGACUGUCACCUUCUCUGUGUGAUUAACA | 0.00878 ± 0.0027
UUCACUGUCACCUUCUCUGAGACAUUAACA | 0.141 ± 0.012
UAGUGAGUCACCUUCUCGAGAGAUUAACA | 0.074 ± 0.0093
UAGUCUCACACCUUCUCUGAGAGAUUAACA | 0.464 ± 0.022
UAGACUCUCACCUACUCUGAGAGAUUAACA | 0.277 ± 0.022
UAGUGUGUCACCUUCACUGAGAGAUUAUCA | 0.131 ± 0.026
UUCACUGUCACCUUCUCUGAGUCUUUAACA | 0.0111 ± 0.0038
UUGACUGUCACCUUCUCUGUGAGAUUAACA | 0.267 ± 0.011
AUCACUGUCAGCUUCUCUGAGUGAUUAACA | 0.0205 ± 0.004
UUCACUGUCACCUUCUCUGAGAGUUAACA | 0.368 ± 0.094
UAGUGAGUGUGCUUCUCUGAGAGAUUAACA | 0.0679 ± 0.0088
UAGACUCACACCUUCUCUGAGAGAUUAAGA | 0.152 ± 0.023
UAGUGACACACCUUCUGUGAGAGAUAUUGA | 0.0056 ± 0.0042
UAGUGUGUCACCAUCUCUGAGAGAUUAUGA | 0.02 ± 0.007
UAGUGACACACCUUCUCUCAGAGAUUAUCA | 0.051 ± 0.016
UUCACUGUCACGUUCUCUCAGAGAUUAACA | 0.0729 ± 0.0078
UUCCCUGUCACCUUCUCUGAGAGAUUAACA | 0.502 ± 0.037
UAGUGACACACCUUCUCUAGAGAUUAACA | 0.0218 ± 0.0072
UAGUGAGUGACCUUCUCUGAGAGAUAAACA | 0.294 ± 0.04
UAGUGACUCACCUUCACAGAGAGAUUAACA | 0.00937 ± 0.0028
UAGACUGUCACCUUCUCUGAGACGAUUAACA | 0.0162 ± 0.0031
